Test results reported in patent US20110212094A1 (AbbVie / Abbott, published 2011).

Tests used:
[1] = biological target: NGF (Neuroscreen-1 bioassay); assay: cell-based or functional assay
[2] = biological target: T1, Recombinant Human β-NGF (human, UniProt P01138 in part, limits assumed); assay: Biacore SPR
T1 construct: Bought reagent used in the Biacore analyses
Protocol: (§1) The BIACORE assay (Biacore, Inc, Piscataway, N.J.) determines the affinity of antibodies or DVD-Ig with kinetic measurements of on-rate and off-rate constants. Binding of antibodies or DVD-Ig to a target antigen (for example, a purified recombinant target antigen) is determined by surface plasmon resonance-based measurements with a Biacore® 1000 or 3000 instrument (Biacore® AB, Uppsala, Sweden) using running HBS-EP (10 mM HEPES [pH 7.4], 150 mM NaCl, 3 mM EDTA, and 0.005% surfactant P20) at 25° C. All chemicals are obtained from Biacore® AB (Uppsala, Sweden) or otherwise from a different source as described in the text. For example, approximately 5000 RU of goat anti-mouse IgG, (Fcγ), fragment specific polyclonal antibody (Pierce Biotechnology Inc, Rockford, Ill.) diluted in 10 mM sodium acetate (pH 4.5) is directly immobilized across a CM5 research grade biosensor chip using a standard amine coupling kit according to manufacturer's instructions and procedures at 25 μg/ml. Unreacted moieties on the biosensor surface are blocked with ethanolamine. Modified carboxymethyl dextran surface in flowcell 2 and 4 is used as a reaction surface. Unmodified carboxymethyl dextran without goat anti-mouse IgG in flow cell 1 and 3 is used as the reference surface. For kinetic analysis, rate equations derived from the 1:1 Langmuir binding model are fitted simultaneously to association and dissociation phases of all eight injections (using global fit analysis) with the use of Biaevaluation 4.0.1 software. Purified antibodies or DVD-Ig are diluted in HEPES-buffered saline for capture across goat anti-mouse IgG specific reaction surfaces. Antibodies or DVD-Ig to be captured as a ligand (25 μg/ml) are injected over reaction matrices at a flow rate of 5 μl/min. The association and dissociation rate constants, kₘ (M⁻¹s⁻¹) and koff (s⁻¹) are determined under a continuous flow rate of 25 μl/min. Rate constants are derived by making kinetic binding measurements at different antigen concentrations ranging from 10-200 nM. The equilibrium dissociation constant (M) of the reaction between antibodies or DVD-Igs and the target antigen is then calculated from the kinetic rate constants by the following formula: KD=koff/kₒₙ. Binding is recorded as a function of time and kinetic rate constants are calculated.

[3] = biological target: T2, Recombinant Human TNF-α/TNFSF1A (human, UniProt P01375 in part); assay: Biacore SPR
T2 construct: Bought reagent for Biacore; also called huTNFα
Protocol: as §1

[4] = biological target: T3, Recombinant Human SOST (human, UniProt Q9BQB4 24-213); assay: Biacore SPR
T3 construct: R&D reagent in Biacore; also called sclerostin; Human sclerostin (Abbott PR-1261069)
T3 sequence (looked up): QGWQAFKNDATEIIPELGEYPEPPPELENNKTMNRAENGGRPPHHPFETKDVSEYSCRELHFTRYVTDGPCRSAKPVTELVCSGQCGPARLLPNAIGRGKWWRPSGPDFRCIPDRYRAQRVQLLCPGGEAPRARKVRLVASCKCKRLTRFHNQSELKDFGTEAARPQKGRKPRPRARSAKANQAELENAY
Protocol: as §1

[5] = biological target: T2, Recombinant Human TNF-α/TNFSF1A; assay: cell-based or functional assay
T2 sequence (P01375 77-233 limits assumed): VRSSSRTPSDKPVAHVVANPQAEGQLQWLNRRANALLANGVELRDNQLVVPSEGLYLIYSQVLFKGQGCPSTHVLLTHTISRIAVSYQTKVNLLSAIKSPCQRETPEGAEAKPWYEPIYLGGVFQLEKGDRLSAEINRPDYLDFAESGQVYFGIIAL

T1 sequence (P01138 122-239 limits assumed): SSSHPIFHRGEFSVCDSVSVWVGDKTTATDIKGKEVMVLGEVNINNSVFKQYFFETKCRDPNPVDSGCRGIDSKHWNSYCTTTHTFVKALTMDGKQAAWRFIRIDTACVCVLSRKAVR

B1: DVD1259 (bispecific antibody, human IgG1, kappa)
heavy: QVQLQESGPGLVKPSETLSLTCTVSGFSLIGYDLNWIRQPPGKGLEWIGIIWGDGTTDYNSAVKSRVTISKDTSKNQFSLKLSSVTAADTAVYYCARGGYWYATSYYFDYWGQGTLVTVSSASTKGPEVQLVESGGGLIQPGGSLRLSCAASGFTVSRNYMSWVRQAPGKGLEWVSVIYSGDRTYYADSVKGRFTISRDNSKNTLYLQMNSLRAEDTAVYYCARGEGGFDYWGQGTLVTVSS[gap - human IgG1 constant region]
light: DIQMTQSPSSLSASVGDRVTITCRASQSISNNLNWYQQKPGKAPKLLIYYTSRFHSGVPSRFSGSGSGTDFTFTISSLQPEDIATYYCQQEHTLPYTFGQGTKLEIKRTVAAPEIVMTQSPATLSVSPGERATLSCRASQSVSSNLAWYQQKPGQAPRLLIHGASIRATGLPARFSGSGSGTEFTLTISSLQSEDFAVYYCQQYNYWWTFGQGTKVEIKRTVAAPSVFIFPPSDEQLKSGTASVVCLLNNFYPREAKVQWKVDNALQSGNSQESVTEQDSKDSTYSLSSTLTLSKADYEKHKVYACEVTHQGLSSPVTKSFNRGEC
notes: constant regions from vectors V1/V2; also called DVD1259H; DVD1259L
- N-Terminal VD NGF Inhibition Assay EC50 pM (ERK1/2 phosphorylation, Neuroscreen-1 cells) [1]: 27 pM
- Kd [2]: 0.0733 nM
- koff [2]: 6.07e-06 s⁻¹
- kon [2]: 82800 M⁻¹ s⁻¹
- Kd [3]: 0.0733 nM
- koff [3]: 6.07e-06 s⁻¹

B2: DVD1232 (bispecific antibody, human IgG1, kappa)
heavy: QVQLKESGPGLVAPSQSLSITCTVSGFSLTDYGVNWVRQPPGKGLEWLGMIWGDGSTDYDSTLKSRLSISKDNSKSQIFLKMNSLQTDDTARYYCAREWHHGPVAYWGQGTLVTVSAASTKGPQVQLQESGPGLVKPSETLSLTCTVSGFSLIGYDLNWIRQPPGKGLEWIGIIWGDGTTDYNSAVKSRVTISKDTSKNQFSLKLSSVTAADTAVYYCARGGYWYATSYYFDYWGQGTLVTVSS[gap - human IgG1 constant region]
light: DIVMTQSHKFMSTTVGDRVSITCKASQAVSSAVAWYQQKPGQSPKLLIYWASTRHTGVPDRFTGSGSVTDFTLTIHNLQAEDLALYYCQQHYSTPFTFGSGTKLEIKRTVAAPDIQMTQSPSSLSASVGDRVTITCRASQSISNNLNWYQQKPGKAPKLLIYYTSRFHSGVPSRFSGSGSGTDFTFTISSLQPEDIATYYCQQEHTLPYTFGQGTKLEIKRTVAAPSVFIFPPSDEQLKSGTASVVCLLNNFYPREAKVQWKVDNALQSGNSQESVTEQDSKDSTYSLSSTLTLSKADYEKHKVYACEVTHQGLSSPVTKSFNRGEC
notes: constant regions from vectors V1/V2; also called DVD1232H; DVD1232L
- Kd [3]: 0.0535 nM
- koff [3]: 0.000104 s⁻¹
- kon [3]: 1.94e+06 M⁻¹ s⁻¹

B3: DVD1257 (bispecific antibody, human IgG1, kappa)
heavy: EVQLQQSGPELVTPGASVKISCKASGYTFTDHYMSWVKQSHGKSLEWIGDINPYSGETTYNQKFKGTATLTVDKSSSIAYMEIRGLTSEDSAVYYCARDDYDASPFAYWGQGTLVTVSAASTKGPEVQLVESGGGLIQPGGSLRLSCAASGFTVSRNYMSWVRQAPGKGLEWVSVIYSGDRTYYADSVKGRFTISRDNSKNTLYLQMNSLRAEDTAVYYCARGEGGFDYWGQGTLVTVSS[gap - human IgG1 constant region]
light: DVQMIQSPSSLSASLGDIVTMTCQASQGTSINLNWFQQKPGKAPKLLIYGSSNLEDGVPSRFSGSRYGTDFTLTISSLEDEDLATYFCLQHSYLPYTFGGGTKLEIKRTVAAPEIVMTQSPATLSVSPGERATLSCRASQSVSSNLAWYQQKPGQAPRLLIHGASIRATGLPARFSGSGSGTEFTLTISSLQSEDFAVYYCQQYNYWWTFGQGTKVEIKRTVAAPSVFIFPPSDEQLKSGTASVVCLLNNFYPREAKVQWKVDNALQSGNSQESVTEQDSKDSTYSLSSTLTLSKADYEKHKVYACEVTHQGLSSPVTKSFNRGEC
notes: constant regions from vectors V1/V2; also called DVD1257H; DVD1257L
- Kd [4]: 0.0312 nM
- koff [4]: 0.000215 s⁻¹
- kon [4]: 6.51e+06 M⁻¹ s⁻¹
- Kd [3]: 0.142 nM
- koff [3]: 2.66e-05 s⁻¹
- kon [3]: 188000 M⁻¹ s⁻¹

B4: DVD1250 (bispecific antibody, human IgG1, kappa)
heavy: QVQLVESGGGVVQPGRSLRLSCAASGFTFSSYDMHWVRQAPGKGLEWVAVIWSDGSIKYYADSVKGRFTISRDNSKNTLYLQMNSLRAEDTAVYYCAREVESAMGGFYYNGMDVWGQGTTVTVSSASTKGPQVQLQESGPGLVKPSETLSLTCTVSGFSLIGYDLNWIRQPPGKGLEWIGIIWGDGTTDYNSAVKSRVTISKDTSKNQFSLKLSSVTAADTAVYYCARGGYWYATSYYFDYWGQGTLVTVSS[gap - human IgG1 constant region]
light: DIQMTQSPSSLSASVGDRVTITCRASQGIRIDLGWYQQKPGKAPKRLIYAASTLQSGVPSRFSGSGSGTEFIFTISSLQPEDFASYYCLQHKSYPLTFGGGTKVEIKRTVAAPDIQMTQSPSSLSASVGDRVTITCRASQSISNNLNWYQQKPGKAPKLLIYYTSRFHSGVPSRFSGSGSGTDFTFTISSLQPEDIATYYCQQEHTLPYTFGQGTKLEIKRTVAAPSVFIFPPSDEQLKSGTASVVCLLNNFYPREAKVQWKVDNALQSGNSQESVTEQDSKDSTYSLSSTLTLSKADYEKHKVYACEVTHQGLSSPVTKSFNRGEC
notes: constant regions from vectors V1/V2; also called DVD1250H; DVD1250L
- Kd [2]: 2.93 nM
- koff [2]: 1.02e-05 s⁻¹
- kon [2]: 3480 M⁻¹ s⁻¹
- Kd [3]: 0.0214 nM
- koff [3]: 4.61e-05 s⁻¹
- kon [3]: 2.16e+06 M⁻¹ s⁻¹
- N-terminal VD TNFα Neutralization Assay EC50 nM (L929 cells) [5]: 0.02 nM
